The record followed here is PubChem BioAssay AID1956 (SRMLSC, 2009).

The list shows a part of the results. The main result of the screen is listed elsewhere. These columns were measured beside it and carry no call.

This test in a line: compounds boosting herpes simplex virus growth – fold increase, host cell viability (AID 1956). Also: tested in PC3 cells. The note with it: HSV replication augmentation in cells; fold increase: measured here: primary screen fold increase 10 uM, at 10 µM, stronger effect = higher value; viability: measured here: host cell viability series, at 25 µM, stronger effect = lower value.
On to `N=C1c2c(cc(=O)n3c2[nH]c2ccccc23)CN1CCN1CCOCC1`, for which the fold increase was 1.33.

On to `O=C1/C(=C/c2ccc(N3CCOCC3)o2)SC(=Nc2ccccc2)N1CCc1c[nH]c2ccccc12`, for which the fold increase was determined as 1.84 and the viability (usually a read-out of living cells in per cent, often relative to untreated cells) was 54.5%.

For the compound `Brc1cc(Br)cc(CN2CCSCC2)c1`, the fold increase stood at 1.33 and the viability is 96.5%.

Regarding `CCN(CC)C(=O)CSc1nnc(-c2ccccc2)n1N`, the fold increase was determined as 1.58 and the viability came out at 88.7%.

With `CCOc1ccc(C2C=C(c3ccc(C)cc3)Nc3nnnn32)cc1` (centres undefined), the fold increase was 1.47 and the viability amounted to 101%.

Regarding `Cn1c2ccccc2c2cc(/C=C(\NC(=O)c3ccccc3)C(=O)NCC(=O)O)ccc21`, the fold increase was found to be 3.2 and the viability amounted to 92.2%.

Take `COC(=O)c1cc(OC)nc2c1c(=O)n(C)c(=O)n2C`: the fold increase was determined as 1.44 and the viability was determined as 100%.

Turning to `O=C(Nc1ccc2nc3ccccc3nc2c1)c1ccccc1`, the fold increase amounted to 1.36 and the viability turned out to be 93.8%.

`COc1cc(/C=C2\SC(=S)N(C(C(=O)O)c3ccccc3)C2=O)ccc1O` (centres undefined): the fold increase came to 6.42 and the viability was determined as 92.7%.

Consider `Cc1ccn2c(NC3CCCC3)c(-c3ccsc3)nc2c1`, for which the fold increase was 2.16 and the viability is 99.4%.

In the case of `CC1=CC(=O)c2ccccc2C1=O`, the fold increase is 1.52 and the viability came out at 81.2%.

Regarding `CCN(CC)Cc1c(O)ccc2c1O/C(=C\C=C\c1ccccc1)C2=O`, the fold increase was determined as 2.33 and the viability was 28.8%.

`CCN(CC)c1ccc(/C=C(/C#N)c2nc3ccccc3[nH]2)c(OC(C)C)c1`: the fold increase is 5.76 and the viability is 42.4%.

`COC(=O)C1=C(C)N=C2SC(C#N)=C(N)N2C1c1ccc(OCc2ccccc2)cc1` (centres undefined) returned a fold increase of 1.34.

Regarding `CC[n+]1c(/C=C/c2c[nH]c3ccccc23)ccc2cc(C)ccc21`, the fold increase came to 7.76 and the viability was determined as 4.08%.

`Cc1c(-n2cc(C(=O)c3cc(Br)ccc3O)cc(C#N)c2=O)c(=O)n(-c2ccccc2)n1C`: the fold increase stood at 1.59 and the viability stood at 99.3%.

For the compound `CCOc1ccccc1NC(=O)c1cc(C(=O)c2cc(OC)ccc2O)coc1=N`, the fold increase was 1.61 and the viability stood at 86.4%.

`CN1C(=O)/C(=C/c2ccc(-c3ccccc3[N+](=O)[O-])o2)SC1=Nc1ccc(Cl)c(C(=O)O)c1`: the fold increase is 1.65 and the viability worked out at 103%.

Take `CCCNC(=O)COC(=O)c1ccc(S(=O)(=O)N2CCCCCC2)cc1`: the fold increase was 1.32 and the viability was found to be 99%.

Consider `Cc1cc(C(=O)NC(C)CCC(C)C)c2ccccc2n1` (centres undefined), for which the fold increase is 1.39 and the viability turned out to be 97.2%.

Turning to `COc1cc2nc(/C=C/c3ccc(N(C)C)cc3)sc2cc1SC`, the fold increase was determined as 5.55 and the viability is 98.8%.

Turning to `CCOC(=O)CN=C1CC(C)(C)CC2=C1Sc1ncnc(N(C)C)c1N2`, the fold increase was 1.33 and the viability amounted to 93.7%.

Turning to `COc1cc(C(=O)Nc2nnc(-c3sccc3C)s2)cc(OC)c1OC`, the fold increase amounted to 1.14.

`N#Cc1cc(S(=O)(=O)c2ccc(F)cc2)c(N)[nH]c1=O`: the fold increase stood at 1.48 and the viability turned out to be 93.5%.

Consider `CCOC(=O)C1CCN(C(=O)c2cn(CCOC)c(=O)c3c2c2ccccc2n3C)CC1`, for which the fold increase is 1.37 and the viability came out at 98%.

`O=C(NCc1ccco1)c1cc2cc3ccc(Cl)cc3nc2o1` gave a fold increase of 1.

For `CCOc1ccc2noc3c2c1C(=O)c1ccccc1-3`, the fold increase was 4.32 and the viability was found to be 96%.

`O=C(Nc1nc(-c2ccco2)c(-c2ccco2)s1)C1CCC1`: the fold increase amounted to 1.39 and the viability came out at 82.2%.

For the compound `COc1ccc(NC(=S)NNC(=O)Cn2nc([N+](=O)[O-])cc2C)cc1`, the fold increase was 1.36 and the viability is 100%.

`CN(C)/C=C1\SC(=S)N(c2ccc(Br)cc2)C1=O`: the fold increase was found to be 1.84 and the viability came to 96.2%.

In turn, `Cn1c(=O)c(NCCc2ccccc2)c2c3c(cccc31)C(=O)c1ccccc1-2` registered a fold increase of 7.68.

With `COc1ccc(OC)c(-c2c3cc(O)c(=O)cc-3oc3cc(O)c(O)cc23)c1`, the fold increase worked out at 7.19 and the viability was found to be 89.1%.

`O=C1OC(c2ccco2)=N/C1=C\c1ccc(-c2cccc(C(F)(F)F)c2)o1`: the fold increase was determined as 1.35 and the viability was 99.9%.

As for `CCN(CC)c1ccc(S(=O)(=O)N2CCOCC2)cc1NC(=O)CNCc1ccccc1`, the fold increase worked out at 1.38 and the viability worked out at 97.2%.

Take `COc1ccc(C2C=C(c3ccccc3)Nc3nnnn32)cc1` (centres undefined): the fold increase came to 1.41 and the viability amounted to 99.3%.

Take `CNC(=O)CN(c1ccc2c(c1)OCCO2)S(C)(=O)=O`: the fold increase amounted to 1.56 and the viability came out at 94.9%.

As to `CC1OC2(C)OC(=N)C1(C#N)C(C#N)(C#N)C2c1ccccc1` (centres undefined), the fold increase amounted to 1.44 and the viability was 101%.

For `CCNC(=S)N/N=C/c1cccs1`, the fold increase is 1.17.

Take `CCOC(=O)c1ccc(NC(=O)Nc2ccc(F)cc2)cc1`: the fold increase is 1.01.

Consider `CCN1Cc2c(/C=C/c3ccccc3)nc3ccc(OC)cc3c2N(c2cccc(Cl)c2)C1`, for which the fold increase came to 1.36 and the viability came to 13%.

As to `O=C/C(=C\Nc1ccc(S(=O)(=O)CCO)cc1)c1nc2cc(Cl)ccc2o1`, the fold increase amounted to 1.33 and the viability was 94.9%.

Consider `CN(C)c1ccc(N=Cc2nc(-c3ccccc3)oc2OC(=O)c2cccc(Cl)c2)cc1`, for which the fold increase amounted to 1.54 and the viability came to 101%.

On to `N#C/C(=C\c1ccc(OC(=O)c2ccc(Cl)s2)cc1)c1nc2ccccc2[nH]1`, for which the fold increase stood at 1.83 and the viability stood at 85.5%.

Consider `COC(=O)c1cc(NC(=O)c2ccccc2)c(=O)oc1C/C=N\OCc1ccc(Cl)cc1Cl`, for which the fold increase worked out at 1.52 and the viability came out at 96.3%.

Regarding `COc1ccc(S(=O)(=O)N2CCCCC2C(=O)O)cc1` (centres undefined), the fold increase came out at 1.33 and the viability was 96.7%.

`CC(C)OCCCn1c(=NC(=O)c2ccncc2)c(C#N)cc2c(=O)n3ccccc3nc21`: the fold increase came to 1.32 and the viability turned out to be 97.6%.

In the case of `Cc1ccc(Oc2nnc(-c3ccccc3)c3ccccc23)cc1`, the fold increase worked out at 1.47 and the viability amounted to 78.5%.

`CCOC(=O)c1sc(NC(=O)CSc2nc3c(cc2C#N)CCCCCC3)c(C#N)c1C`: the fold increase was 3.16 and the viability came to 70.1%.

As for `COc1ccc(-[n+]2c(C)cc(/C=C3\Sc4ccccc4N3C)cc2C)cc1`, the fold increase came to 6.75 and the viability was 33.1%.

Turning to `O=[N+]([O-])c1cccc(-c2cn3nc(-c4ccccc4)c(-c4ccccc4)nc3n2)c1`, the fold increase stood at 1.52 and the viability was found to be 88.3%.

As for `CC[C@@]1(O)C(=O)OCc2c1cc1n(c2=O)Cc2cc3c(CN(C)C)c(O)ccc3nc2-1`, the fold increase was 2.56 and the viability amounted to 28.8%.

For the compound `COc1cc(N2CCCC2)c(OC)cc1/C=C(/C#N)c1ccc(F)cc1`, the fold increase worked out at 2.04 and the viability stood at 88.4%.

For the compound `O=C1NC(=S)/C(=C\c2ccc(-c3ccccc3Cl)o2)S1`, the fold increase came out at 1.37 and the viability was determined as 64.3%.

Take `COc1ccc(/C=N/NC(=O)c2cc(-c3ccccc3OC)nc3ccccc23)cc1COC(C)=O`: the fold increase is 1.09.

As for `Cc1c(S(=O)(=O)c2ccccn2)c(N)n(Cc2ccccc2)c1C`, the fold increase is 1.45 and the viability stood at 85.3%.

As to `O=C(Cn1nc2ccccc2n1)N/N=C/c1cc([N+](=O)[O-])ccc1O`, the fold increase was found to be 1.39.

Regarding `O=[N+]([O-])c1ccc(N/N=C/c2ccccc2)c(F)c1`, the fold increase was 1.51.

`COc1ccc(CCN2C(=O)C3C4C=CC(C4)C3C2=O)cc1OC` (centres undefined): the fold increase is 1.39 and the viability turned out to be 93.3%.

Take `COc1ccc(O)c(C(=O)c2coc(=N)c(C(=O)Nc3ccc(SC(F)F)cc3)c2)c1`: the fold increase was determined as 3.33 and the viability turned out to be 78.2%.

Compound `CCn1cc([N+](=O)[O-])c(C(=O)N2N=C(c3ccc4ccccc4c3)CC2c2ccccc2O)n1` (centres undefined) showed a fold increase of 1.13.

As for `COc1cc(/C=C2\SC(=Nc3cccnc3)NC2=O)cc(OC)c1OC`, the fold increase came out at 1.61 and the viability was determined as 91.7%.

Turning to `CCCSc1nc(=O)n2cc(C)ccc2n1`, the fold increase was 1.33 and the viability turned out to be 98.1%.

`NC(=S)N/N=C/c1cccc(O)c1O`: the fold increase is 1.45 and the viability worked out at 89.2%.

As to `O=C(CN(CC1CCCO1)S(=O)(=O)c1ccc(S(=O)(=O)NCC2CCCO2)cc1)Nc1ccccc1` (centres undefined), the fold increase was determined as 1.56 and the viability stood at 100%.

Regarding `Cn1cc(/C=C2\SC(=S)N(NC(=O)c3ccccc3Cl)C2=O)c2ccccc21`, the fold increase worked out at 1.47 and the viability was determined as 88.9%.

`Cc1nn(C)c(C)c1/C=N/O` came in with a fold increase of 1.3.

Consider `N#C/C(=C\c1ccc(N2CCOCC2)o1)C(=O)NCCc1ccccc1`, for which the fold increase is 3.58 and the viability is 92%.

`CCN(CC)c1ccc2cc(C(C)=O)c(=O)oc2c1`: the fold increase was found to be 1.64.

With `CCCSc1nnc(Cn2c(=O)sc3ccccc32)n1C`, the fold increase is 1.48 and the viability turned out to be 99.6%.

On to `CCCCCCc1cc2cc(-c3nnc(-c4ccccc4O)o3)c(=O)oc2cc1O`, for which the fold increase was 6.55 and the viability turned out to be 39.7%.

Turning to `COC(=O)C1=C(O)/C(=C\c2ccc(CNS(=O)(=O)c3ccc(Cl)cc3)o2)N=C1C`, the fold increase stood at 1.56 and the viability was 89.8%.

For `Cc1ccc(S(=O)(=O)N[C@H](C(=O)Oc2ccc3c(C(F)(F)F)cc(=O)oc3c2)c2ccccc2)cc1`, the fold increase stood at 1.25 and the viability was 96.3%.

Consider `CCN1CCC2(CC1)C(C#N)=C(N)Oc1c2sc2nc(C)cc(C)c12`, for which the fold increase stood at 1.49 and the viability was determined as 104%.

As to `Cc1cc(C(=O)COc2cccnc2[N+](=O)[O-])c(C)n1Cc1ccco1`, the fold increase came to 1.36 and the viability worked out at 93.9%.

`CCOC(=O)c1c(C)[nH]c(C(=O)/C(C#N)=C/c2ccc(OCC)cc2)c1C`: the fold increase amounted to 1.51 and the viability is 98.9%.

`Cc1cc(C)c[n+](-c2nc3ccccc3nc2[N-]S(=O)(=O)c2ccc(Br)s2)c1`: the fold increase worked out at 2.06 and the viability came to 100%.

`CNc1ccccc(-c2ccc3cc4c(cc3n2)OCO4)c1=O`: the fold increase amounted to 1.65 and the viability turned out to be 92.4%.

On to `Nc1ccc2c(c1)Cc1cc([N+](=O)[O-])ccc1-2`, for which the fold increase turned out to be 1.52 and the viability was found to be 97%.

Take `O=S(=O)([O-])CCC[n+]1c(/C=C\Nc2ccccc2)oc2ccc(-c3ccccc3)cc21`: the fold increase is 9.77 and the viability stood at 92.7%.

With `C/C(=N\NC(=O)C(=O)Nc1ccc(C)c(Cl)c1)c1ccncc1`, the fold increase is 1.45 and the viability is 95%.

The compound `CN(CC(O)COc1ccc(S(=O)(=O)N2CCOCC2)cc1Cl)C1CCCCC1` (centres undefined) had a fold increase of 1.32.

For the compound `COc1cc(/C=C2\SC(=N)N(c3ccc(F)cc3)C2=O)ccc1O`, the fold increase is 2.05 and the viability was found to be 81.3%.

With `CC1=CN2C(=N)/C(=C/c3ccc([N+](=O)[O-])o3)C(=O)N=C2S1`, the fold increase is 2.72 and the viability was found to be 95%.

Turning to `CCCCCCc1cc2cc(C(=O)Nc3ccccc3OC)c(=O)oc2cc1O`, the fold increase was 1.45.

As to `COc1ccc(CCc2nnc(CCC(=O)N(C)Cc3ccnc4ccccc34)o2)cc1`, the fold increase came to 1.33 and the viability is 27.3%.

`Cc1cc2cc(C=C(C#N)C#N)c(Cl)nc2cc1C`: the fold increase stood at 1.56 and the viability is 93.1%.

As for `CC1=Nc2ccc3ccccc3c2C1(C)C`, the fold increase turned out to be 2.69 and the viability stood at 94.3%.

For the compound `Cc1cc(=O)[nH]c(SCC(=O)/C=C2\N(C)c3ccccc3C2(C)C)n1`, the fold increase came out at 1.49 and the viability was determined as 58.5%.

`Cc1cc[n+](-c2[nH]c(=O)sc2/C=N/NC([S-])=Nc2ccccc2)cc1C` displayed a fold increase of 3.3.

`O=C(c1ccco1)[C@@H]1[C@@H]2C(=O)N(c3ccc(Br)cc3)C(=O)[C@@H]2C2c3ccccc3C=CN21` (some centres undefined) returned a fold increase of 1.23.

Take `O=C1/C(=C/c2ccc(O)cc2)SC(=S)N1Cc1cccnc1`: the fold increase is 4.62 and the viability turned out to be 94.6%.

For the compound `Nc1cccnc1Sc1cc(Cl)c(Cl)cc1Cl`, the fold increase was 1.34 and the viability turned out to be 104%.

Consider `O=S(=O)(c1cc(Cl)ccc1Br)N1CCCCC1`, for which the fold increase came to 1.45 and the viability is 89.2%.
